Source: PubChem BioAssay AID1508623 (National Center for Advancing Translational Sciences (NCATS), 2021)
Screen size: about 48,000 compounds; about 450 (0.94%) were called active. Inconclusive results, whose numbers are uncertain, are shown with a selection of clear calls. Calls follow the shape of the dose curve; as a rule, active = well fitted inhibition curve with a large enough effect; inconclusive = small, poorly fitted or top-dose-only effect; inactive = no such curve, though single readings can be large or run the other way. A potency beside an inconclusive call is a rough fit, not a confirmed value.

Assay: Primary qHTS for Identification of Small Molecule Inhibitors of Huntingtin Promoter Activity; also: nearly all actives have a fitted effect of over 50% in size
Conditions: HEK293 HTT promoter firefly luciferase reporter (activity 0% = vehicle and -100% = no light), 24 h; activity change, negative = inhibition: at 57.5 µM (top of the series)
How it was run: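 Quantitative HTS used concentration series of up to 57.5 uM final on HEK293 luciferase reporter cells, 24 h at 37 degrees C. Readout was Dual-Glo firefly luminescence.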
Potency is read from the fitted curve at half-maximal effect; tags tell the direction and shape of the fitted curve.

Potency, inconclusive:
O=C(c1ccc(F)cc1)N1CCc2c([nH]c3ccccc23)C1c1ccc(Cl)cc1 (stereo unspecified) 22.4 µM [inhibitor, single point], CC(C)(C)OC(=O)N1CCC(c2c(C(=O)NCc3cccs3)cnn2-c2cccc(F)c2)CC1 25.1 µM [inhibitor, partial curve, poor fit], CCc1nn(C(CC)C(=O)NCc2ccc(OC)c(OC)c2)c(=O)c2cc3oc(C)cc3n12 (stereo unspecified) 31.6 µM [inhibitor, partial curve, poor fit], COc1cc(/C=C(\C#N)c2nc3ccc(C)cc3[nH]2)ccc1OCc1ccc(C)cc1 28.2 µM [inhibitor, single point], CC(=O)Nc1ccc(NC(=O)c2nc(S(=O)(=O)Cc3ccc(F)cc3)ncc2Cl)cc1 39.8 µM [inhibitor, single point], Cc1ccccc1-c1noc(CSc2nc3ccccc3[nH]2)n1 14.1 µM [inhibitor, partial curve, poor fit], CCOC(=O)C1CCCN(C(=O)c2ccc3c(c2)sc2nc(-c4cccc(OC)c4)cn23)C1 (stereo unspecified) 25.1 µM [inhibitor, partial curve, poor fit], Cc1c(-c2cccc3c(CCCOc4cccc5ccccc45)c(C(=O)O)n(Cc4cccnc4)c23)c(COc2ccc(N3CCN([S+](=O)([O-])N(C)C)CC3)cc2)nn1C 30.6 µM [inhibitor, partial curve], COc1ccc(N2CCN(CCCNC(=O)C3COc4ccccc4C3)CC2)cc1 (stereo unspecified) 28.2 µM [inhibitor, single point], CCN1C(C(=O)c2ccccc2)=C(OC(=O)COc2ccc(C)cc2)c2ccccc2S1(=O)=O 39.8 µM [inhibitor, single point], Cn1ncc2c(N3CCN(c4ccc(F)cc4)CC3)ncnc21 28.2 µM [inhibitor, single point], CCn1c(C(=O)NCCc2ccc(S(N)(=O)=O)cc2)cc2sc(Cl)cc21 35.5 µM [inhibitor, single point], CCC1CN(C(=O)N2CCC(C(=O)NCCc3ccc(OC)cc3OC)CC2)c2cc(C)ccc2O1 (stereo unspecified) 28.2 µM [inhibitor, partial curve, poor fit], O=S(=O)(c1ccc(Cl)cc1)c1nc(-c2cccs2)oc1N1CCCCC1 35.5 µM [inhibitor, partial curve, poor fit], CC(=O)Nc1ccc(NC(=O)c2ccc3c(c2)N(Cc2cccc(Cl)c2)C(=O)c2ccccc2S3=O)cc1 (stereo unspecified) 25.1 µM [inhibitor, single point], COc1ccc(CC(C)NS(=O)(=O)c2ccc3c(c2)CCN3S(C)(=O)=O)cc1OC (stereo unspecified) 31.6 µM [inhibitor, partial curve], COc1ccc(C(=O)N2CCC(c3nc4ccccc4s3)CC2)cc1Cl 28.2 µM [inhibitor, partial curve, poor fit], Cc1ccc2oc(C(=O)Nc3ccc(S(=O)(=O)N(C)c4ccccc4)cc3)cc(=O)c2c1 0.158 µM [inhibitor, partial curve, poor fit], CC(O)=C(C#N)C(=O)Nc1ccc(C(F)(F)F)cc1 43.2 µM [inhibitor, single point], CN(C)[C@@H]1C(=O)C(C(N)=O)=C(O)[C@@]2(O)C(=O)C3=C(O)c4c(O)cccc4C[C@H]3C[C@@H]12 39.8 µM [inhibitor, single point], O=C(c1ccc2c(c1)N(Cc1ccccc1F)C(=O)c1ccccc1S2(=O)=O)N1CCc2ccccc21 25.1 µM [inhibitor, partial curve, poor fit], CCc1c2c(nc3ccc(O)cc13)-c1cc3c(c(=O)n1C2)COC(=O)[C@]3(O)CC 0.0086 µM [inhibitor, full curve, poor fit], CCc1cccc(CC)c1NC(=O)C1CCC(CNS(=O)(=O)c2cccc3nsnc23)CC1 (stereo unspecified) 17.8 µM [inhibitor, partial curve, poor fit], CC(=O)c1cccc(NS(=O)(=O)c2cc(-c3onc(C)c3C)ccc2C)c1 10 µM [inhibitor, partial curve, poor fit], Cc1cccc(OCc2nc(CC(=O)Nc3ccc(C)cc3C)cs2)c1 20 µM [inhibitor, partial curve, poor fit], Cc1ccc(OCc2nc(-c3ccc(C(=O)N4CCN(c5cccc(C(F)(F)F)c5)CC4)cc3)oc2C)cc1 25.1 µM [inhibitor, partial curve], CSc1cccc(NC(=O)C2CCN(S(=O)(=O)c3ccc4c(c3)CCCN4C(=O)C3CCC3)CC2)c1 39.8 µM [inhibitor, partial curve, poor fit], Cc1ccc(C(=O)N2CCc3cc(CNC(=O)c4ccc(Br)cc4)ccc32)cc1 12.6 µM [inhibitor, partial curve, poor fit], Cc1ccc(C(=O)Nc2ccccc2)cc1S(=O)(=O)Nc1ccc(Br)cc1 39.8 µM [inhibitor, single point], CCc1ccccc1NC(=O)Nc1cc(C(=O)NCc2cccc(F)c2)ccc1N1CCCC1 28.2 µM [inhibitor, partial curve, poor fit], Cc1oc(-c2cccc(Cl)c2)nc1CN1CCCC(C(=O)NCCc2ccc(Cl)cc2)C1 (stereo unspecified) 39.8 µM [inhibitor, single point], CCn1c(SCc2cccc(Br)c2)nnc1-c1nonc1NC(C)=O 14.1 µM [inhibitor, partial curve, poor fit], CC(C)CNC(=O)C(=O)Nc1c2c(nn1-c1ccccc1)CS(=O)(=O)C2 7.08 µM [inhibitor, partial curve], Cc1cc(C)c(NC(=O)c2cc(S(=O)(=O)NCCC3=CCCCC3)ccc2F)c(C)c1 25.1 µM [inhibitor, single point], Cc1cccc(-n2ncc(C(=O)N3CCN(Cc4ccccc4)CC3)c2C2CCN(C(=O)OC(C)(C)C)CC2)c1 28.2 µM [inhibitor, single point], CCOc1ccccc1NC(=O)N1c2ccccc2Sc2ccccc21 31.6 µM [inhibitor, partial curve, poor fit], CN(C(=O)CSc1nc(C2CCCC2)nc2c1c(=O)n(C)c(=O)n2C)c1ccccc1 25.1 µM [inhibitor, single point], COc1ccc(-n2nnc(-c3nsc(NC(=O)c4ccc(C)c(C)c4)n3)c2C)cc1Cl 0.794 µM [inhibitor, full curve], Cc1ccc(NC(=O)c2cnc(SCC(=O)N3CCOCC3)n(C)c2=O)cc1C 39.8 µM [inhibitor, single point], O=C(CN1CCCN(S(=O)(=O)c2ccc(Br)cc2)CC1)Nc1cccc(C(F)(F)F)c1 28.2 µM [inhibitor, partial curve, poor fit], Cc1ccc(C)c(N2CCN(C(=O)CCNS(=O)(=O)c3ccc4c(c3)CCN4C(=O)C3CC3)CC2)c1 35.5 µM [inhibitor, partial curve, poor fit], CCOc1ccc(NC(=O)CCc2nc3cccnc3n2-c2ccccc2)cc1 12.6 µM [inhibitor, partial curve, poor fit], CCc1cccc(CC)c1NC(=O)C(Cc1ccccc1)NS(=O)(=O)c1cccc2nsnc12 (stereo unspecified) 10 µM [inhibitor, single point], CCN1C(C(=O)c2ccccc2)=C(OC(=O)COc2ccc(OC)cc2)c2ccccc2S1(=O)=O 39.8 µM [inhibitor, single point], Cc1ccc(Nc2sc(C(=O)c3ccccc3)c(N)c2C(=O)Nc2ccc(Cl)cc2)cc1 28.2 µM [inhibitor, partial curve, poor fit], COc1ccc(-c2cn3nc(N4CCCC(C(=O)Nc5cccc(OC)c5)C4)sc3n2)cc1 (stereo unspecified) 39.8 µM [inhibitor, single point]

Potency, active:
Cc1ccc(-n2nc3c(=O)n(C(C)C(=O)NCc4ccc(OC(C)C)cc4)nc(C)c3c2C)cc1 (stereo unspecified) 7.08 µM

Activity change, negative = inhibition, inactive:
O=C(Nc1nnc(-c2ccco2)o1)c1cc(-c2ccccc2)nc2ccccc12 -10%, Cc1cn(-c2cc(NC(=O)c3ccc(C)c(Nc4nccc(-c5cccnc5)n4)c3)cc(C(F)(F)F)c2)cn1 4.15%, O=C(NC1CCN(Cc2ccccc2)CC1)c1ccc(Cn2c(=O)c3ccccc3n(Cc3ccc(Cl)cc3)c2=O)cc1 -6.45%, CCCNC(=O)Nc1ccc(Oc2ncnc3cc(OC)c(OC)cc23)cc1Cl -7.95%, CC(CC1c2ccccc2CCc2ccccc21)CN(C)C (stereo unspecified) -8.13%, CCc1cc2c(cc1N1CCC(N3CCOCC3)CC1)C(C)(C)c1[nH]c3cc(C#N)ccc3c1C2=O 4.29%, Cc1nc2sccn2c(=O)c1S(=O)(=O)Nc1ccc(N2CCOCC2)cc1 -4.84%, COc1ccc(NC(=O)Cn2c(=O)c3cc(Cl)ccc3n3nncc23)cc1 -19.2%, CC(C)C(=O)Oc1ccc(CO)cc1[C@H](CCN(C(C)C)C(C)C)c1ccccc1 -5.45%
